Columns and labels:
[1] = system: HIV-1 B CC1/85 (V370A); settings: Human immunodeficiency virus 1, BCC1, read-out: HIV-1 B CC1/85 (V370A) EC50 (nM)
Procedure: (§1) This example was performed as follows. Crude human primary blood mononuclear cells (PBMCs) were collected from healthy donors via leukapheresis and determined to be negative for HIV exposure, among a variety of additional infectious diseases. PBMCs were isolated via Ficoll-Hypaque density gradient separation followed by aspiration of the banded leukocytes from the gradient. Purified PBMCs from 10 individual donors were combined and cryopreserved in liquid nitrogen as a PBMC pool. Various PBMC pools were utilized.
(§2) Various HIV-1 isolates were obtained from different sources. A stock of the virus was generated in a pool of CD4+ PBMCs and frozen. Viral replication for each virus stock was measured on PHA-blasted PBMC pools to determine the appropriate virus input for anti-viral assays. HIV gag sequences were determined for each isolate by the Sanger di-deoxy sequencing method.
(§3) Cryo-preserved PBMC pools were thawed and stimulated with 2 μg/mL PHA in media (RPMI1640, 20% FBS, 10% T cell growth factor, antibiotics) for 3 days. Blasts were then washed, counted, and cultured in media at 2×10^6 cells/mL in media with 10 U/mL recombinant IL-2 for an additional 24 hours. Stimulated PBMCs were counted for trypan blue exclusion viability and seeded in 96-well round bottom plates at a final density of 1×10^6 cells/well. A volume of the drug dose titration was added to the cells followed by a predetermined amount of virus.
(§4) In order to determine anti-viral potency, HIV reverse transcriptase activity in cell culture supernatants was measured as a measure of viral replication in the presence or absence of compound. At the end of the incubation period, fifty (50) μL of PBMC culture supernatants were transferred to a new 96-well plate; 10 μL of RT extraction buffer was added followed by the addition of 40 μL of RT assay buffer. The RT plates were thoroughly mixed and placed in a humidified incubator at 37° C., 5% CO2 for 2 h. DE-81 96-well plates were placed on a vacuum manifold and 100 uL of the RT reaction transferred to the ion-exchange chromatography plates. After applying the solution phase of the RT reaction to the DE-81 plate, the plate was then washed once with prepared 5% Na2HPO4, followed by a wash of dH20. Plates were then allowed to dry overnight at room temperature. The plates were sealed and 50 μL scintillation fluid added prior to reading on a Topcount (Packard) luminometer at 10 s/well.

[2] = system: HIV-1 B ASJM108 (V370A+); settings: Human immunodeficiency virus 1, read-out: HIV-1 B ASJM108 (V370A+) EC50 (nM)
Procedure: as §1, §2, §3, §4

[3] = system: HIV-1 C 97ZA009 (V370A+); settings: Human immunodeficiency virus 1, read-out: HIV-1 C 97ZA009 (V370A+) EC50 (nM)

Row | SMILES | EC50 [1] [nM] | EC50 [2] [nM] | EC50 [3] [nM]
1 | C=C(C)[C@@H]1CC[C@]2(C(=O)O)CC[C@]3(C)[C@H](CC[C@@H]4[C@@]5(C)CC[C@H](OC(=O)CC(C)(C)C(=O)O)C(C)(C)[C@@H]5CC[C@]43C)[C@@H]12 [Bevirimat] | > 10000 | > 10000 | 13400
2 | CC(C)C1=C2[C@H]3CC[C@@H]4[C@@]5(C)CC[C@H](OC(=O)CC(C)(C)C(=O)O)C(C)(C)[C@@H]5CC[C@@]4(C)[C@]3(C)CC[C@@]2([C@@H](O)CN(CCN(C)C)Cc2ccc(Cl)cc2)CC1=O [Compound 51, 4-(((3aR,5aR,5bR,7aR,9S,11aR,11bR,13aS)-3a-((R)-2-((4-chlorobenzyl)(2-(dimethylamino)ethyl)amino)-1-hydroxyethyl)-1-isopropyl-5a,5b,8,8,11a-pentamethyl-2-oxo-3,3a,4,5,5a,5b,6,7,7a,8,9,10,11,11a,11b,12,13,13a-octadecahydro-2H-cyclopenta[a]chrysen-9-yl)oxy)-2,2-dimethyl-4-oxobutanoic acid] | 1.2 | 1 | 
